Test results reported in the supplement of paper PMC12217912.
Some of the results follow. The full chains were built here from the parent and the listed change. Inactive controls read about 0.05.

B1: TEV protease; numbered along this chain (parent)
chain: MGESLFKGPRDYNPISSSICHLTNESDGHTTSLYGIGFGPFIITNKHLFRRNNGTLVVQSLHGVFKVKDTTTLQQHLVDGRDMIIIRMPKDFPPFPQKLKFREPQREERICLVTTNFQTKSMSSMVSDTSCTFPSGDGIFWKHWIQTKDGQCGSPLVSTRDGFIVGIHSASNFTNTNNYFTSVPKNFMELLTNQEAQQWVSGWRLNADSVLWGGHKVFMVKPEEPFQPVKEATQL

Variants of: B1
Experiment: raw area under fraction-flipped curve 0-4 h after induction (AUC4h, not background-subtracted), DNA-recorder readout of cleavage of the substrate (dimensionless); higher = more cleavage of the substrate by the protease variant
Settings: temperature: 34 °C; time window: 0-4 h after rhamnose induction
Description: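 In vivo DNA recorder in E. coli TOP10(DE3) ΔrhaA at 34 °C. Each TEVp single-site mutant (parent TEVp 0) is paired with a single-site variant of the 7-mer TEVs (canonical ENLYFQ|S). The substrate sits between flexible linkers in a Bxb1-sfGFP-TEVs-SsrA fusion, so cleavage stabilises Bxb1 and speeds flipping of a recombination array, read by NGS. The value is the raw area under the fraction-flipped curve over 0-4 h after rhamnose induction (AUC4h), with ≥20 reads per time point. It is not background-subtracted; inactive controls average about 0.047.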
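Note: Bxb1 expression induced with 0.2% (w/v) L-rhamnose at OD600 near 0.5, cultures sampled hourly, flipped fraction per protease–substrate barcode pair counted by paired-end Illumina sequencing.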

Variant	area with substrate ENLYFQA	area with substrate ENLYFQC	area with substrate ENLYFQD	area with substrate ENLYFQG	area with substrate ENLYFQH	area with substrate ENLYFQK	area with substrate ENLYFQL	area with substrate ENLYFQN	area with substrate ENLYFQQ	area with substrate ENLYFQS	area with substrate ENLYFQT	area with substrate ENLYFQY	area with substrate ENLYFQF	area with substrate ENLYFQI	area with substrate ENLYFQM	area with substrate ENLYFQP	area with substrate ENLYFQR	area with substrate ENLYFQV	area with substrate ENLYFQW	area with substrate ENLYFQE
G28N	0.113	0.107	0.073	0.0836	0.0719	0.057	0.072	0.0729	0.0736	0.0974	0.0834	0.0906								
G28W	0.0944	0.0683	0.0659	0.0691	0.0687	0.0584	0.0385	0.0758		0.0777	0.0637	0.0692	0.0557	0.0568	0.0637	0.0581	0.0626	0.0586	0.058	
G28A	0.0837	0.103	0.0773	0.0993	0.0808			0.0723		0.0957	0.0613	0.0614		0.054	0.0727		0.059	0.0716	0.0599	
C20D	0.0423		0.0463	0.0501	0.0662	0.038	0.0484	0.0397		0.0418	0.0363			0.0311	0.0365	0.0364		0.0367	0.0413	
C20V	0.0852	0.128	0.0797	0.118	0.0944	0.0802	0.0694	0.0791		0.111	0.0695	0.0661	0.0664	0.0645	0.086	0.0482	0.0607	0.0521	0.0646	
C20S	0.0838	0.0655		0.0888		0.058	0.0571	0.064		0.0814	0.0515	0.0493			0.063	0.0534	0.0536	0.0488	0.0582	
C20H	0.0578	0.0546		0.0457	0.0526		0.0483	0.0485		0.0507	0.0474			0.0601		0.0394		0.0225	0.0342	
C20G	0.0615	0.0665			0.0677					0.0652									0.0404	0.0525
C20T	0.0939	0.096		0.0853	0.048	0.0682	0.0555	0.0753	0.0631	0.0928	0.0799	0.102	0.0806	0.0554	0.0798		0.0609		0.059	0.0616
E25Q	0.0988	0.118	0.0724	0.0998	0.0915		0.0567	0.0607		0.103	0.0737	0.0781	0.0819	0.0554	0.117	0.0752	0.0682	0.0669		
Y34F	0.0597		0.0555	0.105	0.0594	0.0637		0.0391		0.0974	0.0619	0.0929		0.0557	0.0586		0.0568	0.0611	0.0525	
P9W	0.112	0.137	0.0483	0.0859	0.0767	0.0648	0.0618			0.104		0.0706		0.0533	0.0984	0.0456	0.0626	0.0377	0.0532	
